# In PubChem BioAssay AID662 (National Center for Advancing Translational Sciences (NCATS), 2007):
# The whole screen tested about 71,000 compounds, of which about 1,800 (2.5%) were called active. Inconclusive results, whose numbers are uncertain, are shown with a selection of clear calls. Calls follow the shape of the dose curve; as a rule, active = well fitted activation curve with a large enough effect in the signal ratio, with a control signal flat (not every such curve was filed as active); inconclusive = small, poorly fitted or top-dose-only effect, or effect the other way, or a change in a side signal; inactive = flat fitted curve, though single readings scatter; the % refers to the signal ratio. Potencies beside an inconclusive call are fits to weak or partial responses and may not hold up.
# Experiment: Cell signaling CRE-BLA (Fsk stim); as to activity change, negative = inhibition: % of control where 0% means no effect
# Details: CHO CRE-bla reporter (cAMP response element driving beta-lactamase), forskolin EC10, beta-lactamase ratio; activity change, negative = inhibition: at 38.2 µM (top of the series) unless noted
# Procedure, shortened: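 Cells were plated overnight at 37 °C, exposed to compound titrations plus EC10 NKH 477 for 3 h, then given CCF4 dye for 2 h at room temperature. Blue/green (460/530 nm) ratio was converted to %Activity and AC50 values calculated.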
# Potency is read from the fitted curve at half-maximal effect; tags tell the direction and shape of the fitted curve.
Compound,"activity change, negative = inhibition",Potency
COc1ccc(Cn2c(CCC(=O)Nc3ccc(CC#N)cc3)nc3cccnc32)cc1,inconclusive: -9.61%,–
CCSc1nnc(NC(=O)c2nn(C(C)C)c(=O)c3ccccc23)s1,–,"inconclusive: 3.16 µM [rising, single point]"
CCC(O)c1cc2c(cc1NC(=O)c1cccs1)OCCO2 (stereo not given),–,"inconclusive: 25.1 µM [rising, single point]"
CN(C)CCCn1c(N)c(C#N)c2nc(C#N)c(C#N)nc21,inconclusive: 13.6%,–
O=C(Nc1ccccc1)[C@@]12C[C@@H]1/C(=N/O)c1ccccc1O2,inconclusive: -7.65%,–
NC(=O)CCCCn1ccc(NC(N)=NCC(F)(F)F)n1,inconclusive: -14.1%,–
COCCOC(=O)C1=C(C)NC2=C(C(=O)CC(C)(C)C2)C1c1cccnc1 (stereo not given),inconclusive: 27.6%,–
CN(C)CCCN=c1c2ccccc2n(C)c2[nH]c(=O)n(C)c(=O)c12,inactive: 21.9% [at 7.6 µM],–
O=C(C1CCC1)N1CCc2cc(S(=O)(=O)N3CCN(c4ccccn4)CC3)ccc21,inconclusive: 19.8%,–
CCN1C(=O)C(NC(C)=O)c2cc(OC)ccc21 (stereo not given),–,"inconclusive: 5.01 µM [rising, single point]"
CCCc1cc(=O)[nH]c(SCC(=O)N(C)Cc2ccccc2)n1,inconclusive: -9.48%,–
Cc1oc(/N=C/c2cccc3ccccc23)c(C#N)c1C,inconclusive: 30.3% [at 7.6 µM],–
Cc1ccc(Cn2c(NCCCn3ccnc3)nc3c2c(=O)n(C)c(=O)n3C)cc1,inactive,–
Nc1cc(=O)[nH]c(N)n1,inconclusive: -15%,–
Cc1noc(C)c1S(=O)(=O)N1CCC(C(=O)NC2CCCc3ccccc32)CC1 (stereo not given),inactive,–
COc1cc(SC)ccc1C(=O)Nc1ccccc1C#N,inconclusive: 7.91%,–
Cc1n[nH]c(C)c1N1C(=O)c2cccc3cc(Br)cc(c23)C1=O,inactive,–
COCCNC(=O)CN(c1ccc(C)cc1)S(=O)(=O)c1ccc(SC)cc1,inactive,–
Cn1c(=O)c2c(ncn2CC(=O)Nc2nc(-c3ccccc3Cl)cs2)n(C)c1=O,inconclusive: -7.47%,–
CCOC(=O)c1c(C)[nH]c(C(=O)COC(=O)c2oc3ccc(OC)cc3c2C)c1C,–,"inconclusive: 3.16 µM [rising, single point]"
O=C1c2ccccc2C(=O)N1CCCc1nc2ccccc2c(=O)n1CCCn1ccnc1,–,"inconclusive: 15.8 µM [rising, single point]"
c1cncc(-c2nnc(-c3cccs3)o2)c1,inactive,–
O=C(Nc1c(F)cc(F)cc1Br)c1cc2nc(C(F)F)cc(C(F)F)n2n1,inactive,–
CC(=O)N1C(=O)c2cccc3cccc(c23)C(=O)N1C(C)=O,inactive,–
Cc1cc(-n2c(C)cc(C(=O)CSc3ncnc4ccccc34)c2C)no1,inactive,–
CCN(CCNC(=O)C1CCN(Cc2nc(-c3cccc(Cl)c3)oc2C)CC1)c1ccccc1,inconclusive: -12.3%,–
COc1ccccc1N1CCN(CCCCNC(=O)c2ccc(-c3ccc(C(C)=O)cc3)cc2)CC1,–,"inconclusive: 12.6 µM [rising, single point]"
CCCCCCCC/C=C\CCCCCCCC(N)=O,inactive,–

Compound,"activity change, negative = inhibition",Potency
O=C(CSc1ncccc1-c1nc2ccccc2[nH]1)N1CCCCC1,inconclusive: 15.2%,–
O=C(NCc1ccc2c(c1)OCO2)C1CCCN1C(=O)Nc1ccccc1 (stereo not given),inconclusive: -3.86%,–
CC(=O)c1c(C)n([O-])c2ccc(C)cc2[n+]1=O,inactive,–
Cc1noc(C)c1CSCC(=O)OCc1nc2ccccc2c(=O)n1CC#N,inconclusive: 18.4%,–
CC1(C)Oc2ccc3ccc(=O)oc3c2-c2cnoc21,inconclusive: 22%,–
CC(=O)N1CCN(c2ccc(NCc3ccc4c(c3)OCO4)cc2)CC1,–,"inconclusive: 25.1 µM [rising, single point]"
CCCCNC(=O)c1cccc(C(=O)NCCCC)c1,inactive,–
Cn1c(=O)c2c(nc(N3CCCCC3)n2CCSc2nc3ccccc3o2)n(C)c1=O,–,"inconclusive: 0.126 µM [rising, single point]"
Cn1c(=O)c2c(O)cc(=O)n(-c3ccccc3)c2n(C)c1=O,inactive,–
O=C(NCc1cccnc1)c1cc(S(=O)(=O)N2CCCCC2)ccc1Cl,inconclusive: 31.6%,–
O=C(NCc1ccco1)C(c1cccnc1)N(C(=O)Cn1nnc2ccccc21)c1ccc(F)cc1 (stereo not given),inactive,–
CCN(CC)CCNC(=O)c1cc2c(=O)n(C)c3ccccc3c2n1C,–,"inconclusive: 12.6 µM [rising, partial curve]"
C=CCOC(=O)c1sc(N2C(=O)c3oc4ccccc4c(=O)c3C2c2ccco2)nc1C (stereo not given),inactive,–
COc1ccc(-c2nc(-c3ccc(Br)o3)no2)cc1OC,–,"inconclusive: 12.6 µM [rising, single point]"
O=C(COC(=O)CCS(=O)(=O)c1ccc(Cl)cc1)Nc1ncc(Cl)cc1Cl,inactive,–
O=C(CSCc1ccco1)c1cccs1,inconclusive: -7.45%,–
COC(=O)N(C)CCCC1(C)C(=O)N(C)c2ccc(O)cc21 (stereo not given),inactive,–
CC(C)C12CN3CC(C(C)C)(CN(C1)C3c1ccccc1O)C2=O (stereo not given),inconclusive: 8.28% [at 7.6 µM],–
Cn1c(C(=O)NCc2ccccn2)cc2c(=O)n(C)c3ccccc3c21,–,active: 5.01 µM
Cc1noc(C)c1COC(=O)COc1cccc2c1OC(C)(C)C2,inconclusive: -1.93%,–
CCNc1ncc2nc(-c3ccccc3)c(=O)n(CCC#N)c2n1,–,"inconclusive: 3.98 µM [rising, partial curve]"
Cc1cc2n(n1)SC(Nc1ccccc1)N2 (stereo not given),inconclusive: 3.66%,–
O=C(CCCCn1c(=O)c2ccccc2n(Cc2ccc(Cl)cc2)c1=O)NCc1ccco1,inconclusive: 28.2%,–
O=C1NCCCC1C(=O)NCCNC(=O)C(F)(F)F (stereo not given),inconclusive: -16.2% [at 7.6 µM],–
CCCCOCCCNC(=O)COc1ccccc1,inconclusive: 21.7% [at 7.6 µM],–
CCCCCCCCC(=O)NCc1cc(OC)c(O)cc1I,inconclusive: -28.2%,–
CCCCN1C(=O)c2ccc(C(=O)Nc3c(N)n(CCCC)c(=O)n(C)c3=O)cc2C1=O,–,"inconclusive: 0.0794 µM [falling, single point]"
